Results on 90 compounds are retold here after PubChem BioAssay AID463173 (ICCB-Longwood Screening Facility, Harvard Medical School, 2010).

The structures appear in SMILES notation. Among all 52,000 compounds or so, about 4,300 (8.3%) were called active. No stated cut-off is given here; in the data, active means survival mostly below about 52% (no sharp cut-off); inactive means mostly above about 56%. This is one part of the list.

The subject of this assay is DeltatarO mutant. Kind of assay: growth inhibition of S. aureus wild type versus tarO mutant, primary screen, teichoic acid synthesis inhibitors, RN4220, OD600 (AID 463173). The settings on record: OD600, 18 h, stronger effect = lower value, screened at 18.75 µg/mL (by protocol).
Regarding `COC(=O)c1ccc(Nc2ncnc3c2cnn3-c2ccccc2)cc1`, the survival is inactive: 91%. Consider `COC(=O)CCCCC1SCC2NC(=O)NC21` (stereo not given), for which the survival is inactive: 96%. For `Cc1cc(C)cc(NC(=O)CCCn2nc(C)c3c(C)n(-c4ccccc4)nc3c2=O)c1`, the survival is inactive: 80%. For `CCOC(=O)C1(C)C=C(Nc2cccc(C)c2)C(=O)N1c1ccccc1` (stereo not given), the survival is active: 15%. To `Cc1ccc(CNC(=O)c2nc(S(=O)(=O)Cc3ccc(C)cc3)ncc2Cl)cc1` belongs active: 41%; to `COc1cc(-c2nnc(SCC(=O)Oc3ccc(C)cc3C)o2)cc(OC)c1OC`, inactive: 70%; to `CC1CCN(S(=O)(=O)c2ccc3nc(Nc4cccc(C(F)(F)F)c4)ccc3c2)CC1`, inactive: 80%. As for `COc1cccc(-c2nc(SCC(=O)NC3CCCC3)c(-c3ccc(F)cc3)[nH]2)c1`, the survival was inactive: 80%. On to `CC(C)c1ccc(/C=C(\C#N)c2nc(-c3cc4ccccc4oc3=O)cs2)cc1`, for which the survival is inactive: 66%. To `Cc1cc(C)cc(NC(=O)c2ncn(-c3ccccc3)n2)c1` belongs inactive: 59%.

In the case of `Cc1c(Cl)cccc1NC(=O)C(C)N(c1ccccc1)S(C)(=O)=O` (stereo not given), the survival is inactive: 75%.

As to `CCc1ccc(NC(=O)N(Cc2cn(CC)c3ccccc23)C2CCCCC2)cc1`, the survival is active: -13%. Take `O=S(=O)(c1ccccc1)c1nc(-c2ccccc2)oc1N1CCN(c2cccc(Cl)c2)CC1`: the survival was inactive: 86%. Under `Cc1ccc(-c2cn3cccnc3n2)cc1NC(=O)Cc1ccccc1` stands inactive: 97%; under `CCc1ccc(NC(=O)COCc2cc(-c3ccc(F)cc3)on2)cc1`, inactive: 81%. Under `O=C(CSCc1cnn(-c2ccccc2)c1-n1cccc1)NCc1ccccc1Br` stands inactive: 102%. Under `CCOCN(C(=O)Cn1c(CC(C)C)nc2ccccc21)c1c(C)cccc1CC` stands active: -12%. On to `CCOc1ccccc1Nc1ncnc2c1c(-c1ccccc1)cn2-c1ccc(OC)cc1`, for which the survival is inactive: 105%. For the compound `CC(C)c1ccc(NC(=O)C(NS(=O)(=O)c2ccc3c(c2)CCC(=O)N3)c2ccccc2)cc1` (stereo not given), the survival is inactive: 76%. For `Cn1c(=O)cc(OCC(=O)N2CCN(c3ccc(F)cc3)CC2)c2ccccc21`, the survival is inactive: 66%. To `O=C1c2[nH]nc(-c3ccccc3O)c2C(c2ccc(Cl)cc2)N1CCc1ccccc1` (stereo not given) belongs active: 4%; to `COc1cc(OC)cc(-c2cc3nc(C)c(CCC(=O)Nc4ccc(F)c(Cl)c4)c(C)n3n2)c1`, inactive: 56%; to `CCOc1ccc(OCC)c(NS(=O)(=O)c2ccc3[nH]c(=O)ccc3c2)c1`, active: 8%. In the case of `COc1cc2nc(SCC(=O)Nc3cccc(C)c3)n3nc(CCn4c(C)nc5ccccc54)nc3c2cc1OC`, the survival was inactive: 70%. As for `CC(NC(=O)C1=Cc2ccccc2OC1)c1ccccc1` (stereo not given), the survival is inactive: 78%. For `CCCc1nc2ccccc2c(N)c1CC`, the survival is inactive: 97%. Regarding `COc1ccc(Cc2nc3ccc(C(=O)NCCc4ccccc4)cc3o2)cc1`, the survival is inactive: 80%. On to `CCc1ccccc1-n1c2c(cc(-c3nc(-c4ccc(Cl)cc4)cs3)c1=O)C(=O)CC(C)(C)C2`, for which the survival was inactive: 77%. Under `C=CCN(CC=C)C(=O)c1c(-c2ccccc2Cl)noc1C` stands inactive: 107%; under `COc1cccc(NC(=O)C2CCN(c3cc(C)nc4c(-c5ccc(Cl)cc5)c(C)nn34)CC2)c1`, inactive: 129%. Under `N#CCSc1nc(N)cc(N)n1` stands active: 52%; under `O=C(COc1ccc(F)cc1)NC1CC(=O)N(c2ccc3c(c2)OCCO3)C1` (stereo not given), inactive: 78%; under `Cc1ccc(-c2nn3c(=O)cc(CN4CCN(S(=O)(=O)c5ccc(Cl)cc5)CC4)nc3s2)cc1`, inactive: 78%. Consider `CCN(C(=O)Cn1nc(Cc2ccncc2)c2ccccc2c1=O)c1cccc(C(F)(F)F)c1`, for which the survival was inactive: 70%. As for `CC(C)Cn1c(=O)c2ccccc2n2c(CCC(=O)Nc3ccc(F)c(F)c3)nnc12`, the survival was inactive: 93%. Under `O=C(NCCc1ccccc1)c1ccc2c(c1)CCN2S(=O)(=O)c1ccccc1` stands active: 38%. Under `Cc1ccc(S(=O)(=O)N2CCC(C(=O)Nc3ccc(Oc4ccccc4)cc3)CC2)cc1` stands inactive: 47%; under `CC(C)CSc1ccccc1NC(=O)c1sc2nc(-c3ccncc3)ccc2c1N`, active: 46%. Under `CCOC(=O)c1c(NC(=O)C(C)Oc2ccc(Cl)c(C)c2)sc2c1CCCC2` (stereo not given) stands active: 42%. `Cc1nn2c(=O)cc(COC(=O)c3ccc(NC(=O)c4cccs4)cc3)nc2s1`: the survival is inactive: 125%. For the compound `Cc1cc(C)cc(NC(=O)CN2C(=O)CCc3cc(S(=O)(=O)N4CCCCC4)ccc32)c1`, the survival is inactive: 83%.

On to `O=C(Cn1cc(S(=O)(=O)Cc2ccccc2F)c2ccccc21)NCc1ccccc1Cl`, for which the survival was inactive: 67%. Consider `Cc1ccc(Nc2sc(C(=O)c3ccccc3)c(N)c2S(=O)(=O)c2ccccc2)c(C)c1`, for which the survival was inactive: 69%. Under `COc1ccccc1N1CCN(C(=O)Cn2c(=O)n3nc(-c4cccc(C)c4)nc3c3ccccc32)CC1` stands inactive: 69%; under `COc1ccc(CCNC(=O)c2c(C)nn(-c3ccc(F)cc3)c2-n2cccc2)c(OC)c1OC`, inactive: 67%. In the case of `O=C1c2ccccc2-c2onc3ccc(Oc4c(F)c(F)c(F)c(F)c4F)c1c23`, the survival was inactive: 100%. Consider `CCCSc1ncc(Cl)c(C(=O)Nc2c(C(=O)c3ccc(F)cc3)oc3ccccc23)n1`, for which the survival is active: 44%. Under `COc1ccc(-n2ncc(C(=O)Nc3ccc4c(c3)OCCO4)c2C2CCN(C(=O)OC(C)(C)C)CC2)cc1` stands inactive: 120%. To `CCCCC1(O)CC(C)N(C)CC1C` (stereo not given) belongs inactive: 75%. Under `CCOc1ccc(CNC(=O)C2CCCN(S(=O)(=O)N(CC)c3ccc(OCC)cc3)C2)cc1` (stereo not given) stands inactive: 99%. As to `Cc1ccc(S(=O)(=O)NCc2ccc(/C=N/NC(=O)c3ccco3)o2)cc1`, the survival was inactive: 76%. With `COc1ccc2[nH]cc(CCNC(=O)c3cnn(-c4ccccc4Cl)c3C3CCN(C(=O)OC(C)(C)C)CC3)c2c1`, the survival was inactive: 73%.

Take `CCOc1ccc(C(=O)Nc2ccc(-c3nc4ccccc4s3)c(C)c2)cc1OCC`: the survival is inactive: 99%. Under `Cc1ccc(NC(=O)Cn2nnc(-c3nc(-c4ccc(Cl)cc4)no3)c2N)cc1C` stands inactive: 78%; under `Cc1nc2c(C(=O)NCCc3ccccc3)c[nH]n2c(=O)c1Cc1ccc(F)cc1Cl`, active: -16%; under `Cc1cccc(N2CCN(C(=O)c3ccc(NC(=O)c4nsc5ccccc45)cc3)CC2)c1C`, inactive: 76%. Under `N#C/C(=C/c1ccc(-c2cccc(C(F)(F)F)c2)o1)C(=O)OC1CCCCC1` stands inactive: 82%; under `O=C(O)c1cc2nc3c(c(C(F)(F)F)n2n1)CCC3`, inactive: 89%. As for `CCN(c1cc(C)cc(C)c1)S(=O)(=O)c1nnc(NC(=O)c2ccco2)s1`, the survival was inactive: 52%. Under `COc1ccc(NC(=O)CCN2CCN(CCO)CC2)cc1` stands inactive: 58%; under `CCn1c(CC2C(=O)N(C)c3ccccc32)nc2ccccc2c1=O` (stereo not given), inactive: 84%. In the case of `COc1ccc(Cl)cc1NC(=O)CSc1nc(-c2ccccc2)c2ccccc2n1`, the survival is inactive: 83%. As to `O=C(Nc1cccc(F)c1)[C@@H](c1ccccc1)N1Cc2ccccc2C1=O`, the survival is active: 46%.

With `CCc1nc2c(cnn2-c2ccc(Cl)cc2)c(=O)n1-c1ccc(OC)c(Cl)c1`, the survival was inactive: 69%. Under `Cc1ccc(OCC(=O)Nc2cc(-c3cccc(C)c3)nn2-c2ccccc2)cc1` stands inactive: 96%; under `CCOc1ccccc1C(=O)Nc1cc2c(cc1N1CCOCC1)n(C)c(=O)n2C`, inactive: 77%. As to `Cc1ccc(CCNC(=O)c2ccc3c(c2)c(C)c(C)n3Cc2ccccc2)cc1`, the survival is inactive: 99%.

With `CC1CCCN(c2ccc(C(=O)NCc3ccccc3)cn2)C1` (stereo not given), the survival is inactive: 85%. For the compound `COc1ccc(-n2c(=O)c3sc4ccccc4c3n(CC(=O)NCc3ccccc3)c2=O)cc1`, the survival is inactive: 104%. Under `CCOc1ccc2[nH]c(=O)c(CN(CC3CCCO3)C(=O)N(CC)CC)cc2c1` (stereo not given) stands inactive: 98%; under `Cc1ccccc1CNC(=O)c1ccc(CS(=O)Cc2ccc(Cl)cc2)o1` (stereo not given), inactive: 79%.

Turning to `Cc1ccc2nc(N(Cc3cccnc3)C(=O)c3cccs3)sc2c1`, the survival is inactive: 71%.

Regarding `CCCn1c(CCC(=O)Nc2cccc(CC)c2)nc2cccnc21`, the survival was inactive: 69%.

For the compound `CCOc1ccc(N2CC(c3nc4ccccc4n3Cc3cccc(C)c3)CC2=O)cc1` (stereo not given), the survival was active: 42%. To `Cc1ccc(NC(=O)C(=O)NCCCN2CCOCC2)cc1C` belongs inactive: 91%. As for `Cc1cccc(NC(=O)C2(C)Cc3ccccc3C(=O)O2)c1` (stereo not given), the survival was inactive: 104%.

Take `CC(=O)Nc1ccc2nc(SCCOc3ccccc3)sc2c1`: the survival was inactive: 85%. Consider `Cc1c(CNC2CCCCCC2)c(C(=O)O)c(C)n1Cc1ccc(F)cc1`, for which the survival was inactive: 81%. To `COc1cc(C)c2c(=O)c(-c3nc(C)cs3)coc2c1` belongs inactive: 77%; to `CCCSc1nnc2n(-c3ccc(OC)cc3)c(=O)c3c4c(sc3n12)COC(C(C)C)C4` (stereo not given), inactive: 57%. To `CC(C)CC(C(=O)NCCc1ccccc1)N1Cc2ccccc2C1=O` (stereo not given) belongs inactive: 88%; to `CCc1ccc(NC(=O)CCCn2nc(C)c3c(C)n(-c4ccccc4)nc3c2=O)cc1`, inactive: 81%. To `Cc1nn(C(C)(C)C)c(OC(=O)c2cccc(F)c2)c1Sc1ccccc1` belongs active: 24%. As for `CCOc1ccc(CNC(=O)C2CCN(Cc3cc4ccccc4n3Cc3ccccc3C)CC2)cc1`, the survival is inactive: 67%. With `COc1ccccc1CNC(=O)c1cc2ccc3ccc(C)[nH]c3c2n1`, the survival is inactive: 74%. As for `Cc1ccccc1CSCCNC(=O)CN(c1ccccc1)S(=O)(=O)N(C)C`, the survival is inactive: 52%. Regarding `CCN1CCc2c(sc(-n3cccc3)c2C(C)NC(=O)Nc2ccccc2C)C1` (stereo not given), the survival is inactive: 87%. In the case of `Cn1c(CNC(=O)c2ccccc2)n[nH]c1=S`, the survival was inactive: 76%. To `C=CCn1cc(/C=C(\C#N)C(=O)NC2CCCCC2)c2ccccc21` belongs inactive: 83%. Consider `CCCNc1c2c(nc3ccccc13)CC(C)(C)CC2=O`, for which the survival is inactive: 66%.
